Screen size: about 94,000 compounds; about 2,100 (2.2%) were called active. Inconclusive means that the source gave no clear call. Such entries were picked first, then a sample of the others. Cut-off read from the data, not from the text of the source: active = activity change below about -80%; inconclusive = no clear call, values can overlap the other calls; inactive = above that. More than one record can exist for a structure, and the calls need not agree.
Assay: P. falciparum Dd2 growth inhibitors, primary screen, SYBR Green fluorescence, single dose replicates (AID 1159554)
Details: 72 h, at 10 µM, active compounds read low

For `Cc1ccc(S(=O)(=O)N(C)C[C@H]2OCCCC[C@@H](C)Oc3ccc(NC(=O)NC4CCCCC4)cc3C(=O)N([C@@H](C)CO)C[C@@H]2C)cc1`, which activity change is on record?
Its activity change is inconclusive: -81.2%.

For `C[C@@H]1CN([C@H](C)CO)C(=O)c2cc(NC(=O)Cc3ccccc3)ccc2O[C@@H](C)CCCCO[C@H]1CN(C)Cc1ccc(C(F)(F)F)cc1`, which activity change is on record?
The activity change was inconclusive: -82.3%.

For `COc1ccc(S(=O)(=O)Nc2ccc3c(c2)CC(=O)N([C@H](C)CO)C[C@H](C)[C@@H](CN(C)Cc2ccc(C(=O)Nc4ccccc4N)cc2)O3)cc1`, which activity change is on record?
The activity change was active: -85.4%.

With `O=S(=O)(Cc1ccccc1)N1[C@H](CO)[C@@H](c2ccccc2)C12CN(CCC(F)(F)F)C2` as the compound, how does the activity change read?
Its activity change is active: -84%.

With `COc1cccc(CN2C[C@@H]3N[C@H](C2)C3c2ccc(-c3cccc(C#N)c3)cc2)c1` (stereo partly specified) as the compound, how does the activity change read?
The activity change was inconclusive: -80.5%.

Which activity change does the source give for `Cc1ccc(S(=O)(=O)N2C[C@@H]3N[C@H](C2)C3c2ccc(-c3ccncc3)cc2)cc1` (stereo partly specified) here?
Its activity change is active: -80.7%.

Which activity change does the source give for `CCCN(C)C[C@@H]1Oc2cc(C#CCN(C)C)ccc2S(=O)(=O)N([C@@H](C)CO)C[C@@H]1C` here?
The activity change was inconclusive: -81.5%.

Which activity change does the source give for `COc1ccc(NC(=O)Nc2cccc3c2O[C@H](CN(C)Cc2ccc(Oc4ccccc4)cc2)[C@@H](C)CN([C@H](C)CO)C3=O)cc1` here?
Its activity change is inconclusive: -83.5%.

Which activity change does the source give for `COc1ccc(NC(=O)N(C)C[C@H]2OCCCC[C@H](C)Oc3ccc(NC(=O)C4CCCCC4)cc3C(=O)N([C@@H](C)CO)C[C@@H]2C)cc1` here?
The activity change was inconclusive: -82.4%.

Which activity change does the source give for `C[C@@H](O)C#Cc1ccc([C@H]2[C@H]3CN(S(=O)(=O)c4ccccc4)CCCCN3[C@H]2CO)cc1` here?
Its activity change is inconclusive: -80.9%.

Which activity change does the source give for `COc1ccc2c3c(n(C)c2c1)[C@H](CO)N(Cc1ccncc1)CC31CCN(C(=O)Nc2cccc(F)c2)CC1` here?
The activity change was inconclusive: -82.6%.

Which activity change does the source give for `C[C@H]1CN([C@@H](C)CO)C(=O)c2cc(NC(=O)Nc3cccc4ccccc34)ccc2O[C@@H]1CN(C)Cc1ccc(Oc2ccccc2)cc1` here?
The activity change was inactive: -78.1%.

With `COc1ccc2c3c(n(C)c2c1)[C@H](CO)N(Cc1ccccc1Cl)CC31CN(C(=O)CC2CC2)C1` as the compound, how does the activity change read?
Its activity change is inconclusive: -80.6%.

For `C[C@H]1CCCCO[C@H](CN(C)C(=O)Nc2ccc3c(c2)OCO3)[C@@H](C)CN([C@@H](C)CO)C(=O)c2cc(NC(=O)Nc3ccc(C(F)(F)F)cc3)ccc2O1`, which activity change is on record?
The activity change was inconclusive: -80.6%.

Which activity change does the source give for `COc1ccccc1C#Cc1ccc([C@H]2[C@@H](CO)N(C(=O)C3CC3)[C@H]2C#N)cc1` here?
Its activity change is inconclusive: -80%.

For `C/C=C/c1ccc2c(c1)O[C@H](CN(C)C(=O)Nc1ccc(C(F)(F)F)cc1)[C@@H](C)CN([C@H](C)CO)S2(=O)=O`, which activity change is on record?
The activity change was inactive: -19.1%.

Which activity change does the source give for `C[C@H](CO)N1C[C@H](C)[C@H](CN(C)C(=O)C2CCCCC2)Oc2cc(C3=CCCCC3)ccc2S1(=O)=O` here?
The activity change was inactive: -60.4%.

For `COc1ccc(S(=O)(=O)N(C)C[C@@H]2OCCCC[C@@H](C)Oc3ccc(NC(=O)NC4CCCCC4)cc3C(=O)N([C@@H](C)CO)C[C@@H]2C)cc1`, which activity change is on record?
The activity change was inconclusive: -80.3%.

Which activity change does the source give for `COc1ccc(NC(=O)Nc2ccc3c(c2)C(=O)N([C@H](C)CO)C[C@H](C)[C@H](CN(C)Cc2ccc(C(=O)Nc4ccccc4N)cc2)OCCCC[C@@H](C)O3)cc1` here?
The activity change was active: -87.1%.

For `C[C@H](CO)N1C[C@H](C)[C@@H](CN(C)Cc2ccccc2)Oc2ccc(NC(=O)Nc3ccc(C(F)(F)F)cc3)cc2CC1=O`, which activity change is on record?
Its activity change is inconclusive: -82.9%.

For `C[C@H]1CN([C@@H](C)CO)C(=O)c2cccc(NC(=O)CCCCCC(=O)Nc3ccccc3N)c2O[C@H]1CN(C)Cc1ccc(Oc2ccccc2)cc1`, which activity change is on record?
Its activity change is active: -89.5%.

Which activity change does the source give for `COc1ccc(CN(C)C[C@H]2OCCCC[C@H](C)Oc3ccc(NC(=O)C4CCCCC4)cc3C(=O)N([C@@H](C)CO)C[C@H]2C)cc1` here?
Its activity change is inactive: -48.5%.

For `COc1ccc2c3c([nH]c2c1)[C@H](CO)N(Cc1ccccc1F)CC31CN(C(=O)C2CCCC2)C1`, which activity change is on record?
The activity change was active: -87%.

With `C[C@@H]1CCCCO[C@H](CN(C)Cc2ccc3c(c2)OCO3)[C@H](C)CN([C@@H](C)CO)C(=O)c2cc(NC(=O)Nc3ccccc3)ccc2O1` as the compound, how does the activity change read?
Its activity change is inconclusive: -80.2%.

With `Cc1ccccc1S(=O)(=O)N(C)C[C@@H]1OCc2ccccc2-c2c(n(C)c3ccccc23)C(=O)N([C@@H](C)CO)C[C@H]1C` as the compound, how does the activity change read?
The activity change was inconclusive: -83.3%.

With `C[C@H]1CCCCO[C@H](CN(C)CC2CC2)[C@@H](C)CN([C@@H](C)CO)C(=O)c2cc(NC(=O)Nc3ccc(C(F)(F)F)cc3)ccc2O1` as the compound, how does the activity change read?
The activity change was active: -85.2%.

For `C[C@@H]1CN([C@@H](C)CO)S(=O)(=O)c2ccc(C#Cc3ccccc3)cc2O[C@@H]1CN(C)C(=O)Nc1ccc2c(c1)OCO2`, which activity change is on record?
The activity change was inconclusive: -80.7%.

With `C[C@@H]1CN([C@H](C)CO)S(=O)(=O)c2ccc(C#CC3CCCC3)cc2O[C@H]1CN(C)C(=O)Cc1ccccc1` as the compound, how does the activity change read?
Its activity change is inconclusive: -80.9%.

For `C[C@H]1CN([C@@H](C)CO)S(=O)(=O)c2ccc(C#Cc3ccccc3)cc2O[C@@H]1CN(C)C(=O)C1CC1`, which activity change is on record?
The activity change was active: -86.3%.

For `COc1ccc(S(=O)(=O)N(C)C[C@@H]2Oc3ccc(NC(=O)Nc4cccc5ccccc45)cc3C(=O)N([C@H](C)CO)C[C@H]2C)cc1`, which activity change is on record?
The activity change was inconclusive: -81.5%.

For `O=C(O)C[C@H]1C=C[C@@H](NC(=O)c2ccncc2)[C@H](CO)O1`, which activity change is on record?
Its activity change is inactive: 11.2%.

For `COc1ccc2c3c([nH]c2c1)[C@H](CO)N(S(C)(=O)=O)CC31CCN(CC2CCCCC2)CC1`, which activity change is on record?
Its activity change is inconclusive: -80.6%.

With `CCCC#Cc1ccc([C@H]2[C@H]3CN(Cc4cccnc4)CCCCN3[C@H]2CO)cc1` as the compound, how does the activity change read?
The activity change was inactive: -33.5%.

For `CN(C)c1ccc2c(c1)[C@@H]1C[C@@H](CC(=O)NCc3ccc(Oc4ccccc4)cc3)O[C@@H](CO)[C@@H]1O2`, which activity change is on record?
The activity change was inconclusive: -80.3%.

With `COCC(=O)N1CCC2(CC1)CN(Cc1cccc(F)c1)[C@@H](CO)c1c2c2ccc(OC)cc2n1C` as the compound, how does the activity change read?
The activity change was inactive: -50.2%.

For `C[C@@H]1CN([C@@H](C)CO)C(=O)c2cc(NC(=O)Nc3ccc(F)cc3)ccc2O[C@@H](C)CCCCO[C@@H]1CN(C)S(=O)(=O)c1ccc(F)cc1`, which activity change is on record?
Its activity change is inconclusive: -80.2%.

For `CN1c2ccc(-c3ccccc3)cc2[C@@H]2[C@@H](CCN2C(=O)c2ccccc2)[C@H]1CO`, which activity change is on record?
Its activity change is inconclusive: -80.1%.

With `CO[C@@H]1CN(C)C(=O)c2cc(NC(=O)Nc3ccccc3)ccc2OC[C@@H](C)N(CC2CC2)C[C@H]1C` as the compound, how does the activity change read?
The activity change was inactive: -4.07%.

For `COc1ccc2c3c(n(C)c2c1)[C@H](CO)N(Cc1cc(F)ccc1F)CC31CCN(C(=O)C2CC2)CC1`, which activity change is on record?
The activity change was inconclusive: -80.1%.

For `C[C@H]1CCCCO[C@H](CN(C)S(=O)(=O)c2cn(C)cn2)[C@@H](C)CN([C@@H](C)CO)C(=O)c2cc(NC(=O)Nc3ccc(C(F)(F)F)cc3)ccc2O1`, which activity change is on record?
The activity change was inconclusive: -81.7%.

Which activity change does the source give for `COc1ccc(S(=O)(=O)N(C)C[C@H]2OCCCC[C@H](C)Oc3ccc(NC(=O)Nc4ccc5c(c4)OCO5)cc3C(=O)N([C@H](C)CO)C[C@H]2C)cc1` here?
The activity change was inconclusive: -80.7%.

For `COc1ccc(CNC(=O)C[C@H]2C=C[C@@H](NC(=O)c3ccc4c(c3)OCO4)[C@@H](CO)O2)cc1`, which activity change is on record?
The activity change was inactive: 1.61%.

With `O=C(C[C@H]1C[C@H]2c3cc(NC(=O)c4ccc5c(c4)OCO5)ccc3O[C@H]2[C@@H](CO)O1)NCc1ccccn1` as the compound, how does the activity change read?
Its activity change is inactive: 12.5%.

Which activity change does the source give for `C[C@@H]1CN([C@@H](C)CO)S(=O)(=O)c2ccc(C#Cc3ccccc3F)cc2O[C@H]1CN(C)C(=O)c1ccc2c(c1)OCO2` here?
Its activity change is active: -85.3%.

For `COc1cccc(CN2C[C@@H]3N[C@H](C2)C3c2ccc(-c3ccc(C#N)cc3)cc2)c1` (stereo partly specified), which activity change is on record?
Its activity change is inconclusive: -80.8%.

With `C[C@@H]1CN([C@H](C)CO)C(=O)c2cc(C#CCc3ccccc3)cnc2O[C@@H]1CN(C)CC1CC1` as the compound, how does the activity change read?
The activity change was active: -81.4%.

For `Cc1ccc(S(=O)(=O)Nc2ccc3c(c2)C(=O)N([C@@H](C)CO)C[C@H](C)[C@@H](CN(C)S(=O)(=O)c2ccc(Cl)cc2)OCCCC[C@@H](C)O3)cc1`, which activity change is on record?
The activity change was inconclusive: -80.7%.

For `C[C@H]1CCCCO[C@H](CN(C)C(=O)Nc2ccc3c(c2)OCO3)[C@@H](C)CN([C@@H](C)CO)C(=O)c2cc(NC(=O)Cc3ccccc3)ccc2O1`, which activity change is on record?
Its activity change is inconclusive: -80.2%.

With `COc1ccc2c3c([nH]c2c1)[C@H](CO)N(Cc1ccccc1OC)CC31CCN(C)CC1` as the compound, how does the activity change read?
The activity change was inconclusive: -81.5%.

With `C[C@H]1CCCCO[C@@H](CN(C)C(=O)NC2CCCCC2)[C@@H](C)CN([C@@H](C)CO)C(=O)c2cc(NC(=O)Cc3ccccc3)ccc2O1` as the compound, how does the activity change read?
Its activity change is inconclusive: -80.3%.

For `COc1cccc(CN2CC3(CN(CC4CC4)C3)c3c([nH]c4cc(OC)ccc34)[C@H]2CO)c1`, which activity change is on record?
The activity change was inconclusive: -81.4%.

For `CCCC#Cc1ccc2c(c1)O[C@H](CN(C)Cc1ccc3c(c1)OCO3)[C@H](C)CN([C@H](C)CO)S2(=O)=O`, which activity change is on record?
Its activity change is inconclusive: -80.3%.

For `COc1ccccc1C#Cc1ccc2c(c1)[C@H]1NCC[C@H]1[C@@H](CO)N2`, which activity change is on record?
Its activity change is active: -87%.

For `C[C@H]1CN([C@@H](C)CO)C(=O)c2c(c3ccccc3n2C)-c2ccccc2CO[C@H]1CN(C)Cc1ccc(C(F)(F)F)cc1`, which activity change is on record?
The activity change was inconclusive: -81.5%.

Which activity change does the source give for `C[C@@H]1CCCCO[C@H](CN(C)Cc2ccc(C(F)(F)F)cc2)[C@H](C)CN([C@@H](C)CO)C(=O)c2cc(NC(=O)CCC(F)(F)F)ccc2O1` here?
Its activity change is inconclusive: -80.1%.

With `N#C[C@@H]1[C@H](c2ccc(C#CCC3CCCC3)cc2)[C@H](CO)N1C(=O)c1ccccn1` as the compound, how does the activity change read?
The activity change was inconclusive: -84.3%.

— PubChem BioAssay AID1159554 (Broad Institute, 2015)
